From PMC4336329 (PLoS ONE, 2015)
Among all 310,000 compounds or so, about 14,000 (4.5%) showed an effect of 50% or more. Effects have a minus sign here. The list shows a part of the results.
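Further: peak tail current of the secondary pulse compared with the same well before compound.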

The molecules below were run against human ether-à-go-go-related gene (hERG) potassium channel (human, UniProt Q12809) (assay: primary screen, population patch clamp on CHO cells stably expressing hERG).
Sequence of human ether-à-go-go-related gene (hERG) potassium channel (Q12809 whole entry, looked up): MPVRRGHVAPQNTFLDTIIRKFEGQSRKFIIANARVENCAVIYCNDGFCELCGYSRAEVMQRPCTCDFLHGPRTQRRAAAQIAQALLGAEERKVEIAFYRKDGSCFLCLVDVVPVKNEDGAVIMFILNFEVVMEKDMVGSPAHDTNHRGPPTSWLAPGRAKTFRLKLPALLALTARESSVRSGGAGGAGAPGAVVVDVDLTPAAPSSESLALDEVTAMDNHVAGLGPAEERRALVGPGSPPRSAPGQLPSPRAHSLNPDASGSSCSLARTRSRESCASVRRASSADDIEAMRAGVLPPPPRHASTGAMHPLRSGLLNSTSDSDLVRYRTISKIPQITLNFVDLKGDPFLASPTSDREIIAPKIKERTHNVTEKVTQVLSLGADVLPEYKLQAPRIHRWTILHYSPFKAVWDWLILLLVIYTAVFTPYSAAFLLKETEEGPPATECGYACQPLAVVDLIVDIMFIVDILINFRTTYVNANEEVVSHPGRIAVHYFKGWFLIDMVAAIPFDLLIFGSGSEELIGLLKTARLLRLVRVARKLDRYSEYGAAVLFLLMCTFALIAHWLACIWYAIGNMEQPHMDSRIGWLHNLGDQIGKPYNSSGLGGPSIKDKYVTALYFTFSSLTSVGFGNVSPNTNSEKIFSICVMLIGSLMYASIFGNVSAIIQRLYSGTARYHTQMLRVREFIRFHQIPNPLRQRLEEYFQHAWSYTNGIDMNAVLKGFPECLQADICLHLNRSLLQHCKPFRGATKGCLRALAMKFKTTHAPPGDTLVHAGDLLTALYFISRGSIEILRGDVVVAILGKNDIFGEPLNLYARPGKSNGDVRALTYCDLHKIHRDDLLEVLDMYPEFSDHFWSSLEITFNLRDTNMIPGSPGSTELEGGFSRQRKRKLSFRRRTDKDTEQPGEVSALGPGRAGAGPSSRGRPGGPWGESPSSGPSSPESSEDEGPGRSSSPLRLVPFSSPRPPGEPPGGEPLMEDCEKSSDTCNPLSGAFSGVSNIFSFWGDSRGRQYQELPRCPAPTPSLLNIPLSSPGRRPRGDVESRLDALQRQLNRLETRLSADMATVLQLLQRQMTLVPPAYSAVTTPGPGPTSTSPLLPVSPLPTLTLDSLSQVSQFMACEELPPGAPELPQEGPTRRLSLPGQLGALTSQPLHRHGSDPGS
With COc1ccc(C(=O)NCC(=O)OCC(=O)Nc2ncc(Cl)cc2Cl)cc1[N+](=O)[O-] the “hERG current change (%, negative = inhibition) at 10uM” value was -37.3%.
With CN(Cc1ccccc1)C(=O)c1ccc(NC(=O)c2ccccc2)cc1 the “hERG current change (%, negative = inhibition) at 10uM” value was -59.9%.
C/C(=C\c1ccccc1)C(=O)c1c(C)cc(C)[nH]c1=O was tested, and the “hERG current change (%, negative = inhibition) at 10uM” value was 4.75%.
CCOC(=O)CCCNC(=O)CSc1nc2ccc(OCC)cc2[nH]1 was tested, and the “hERG current change (%, negative = inhibition) at 10uM” value was 16.1%.
CCOCCCNC(=O)CN(c1cc([N+](=O)[O-])ccc1OC)S(C)(=O)=O was tested, and the “hERG current change (%, negative = inhibition) at 10uM” value was 24.3%.
For Cc1cccc(NC(=O)CN2CCCCCC2)c1, the “hERG current change (%, negative = inhibition) at 10uM” value was 7.69%.
NS(=O)(=O)c1cccc(NC(=O)COC(=O)c2cc(Cl)ccc2[N+](=O)[O-])c1 was tested, and the “hERG current change (%, negative = inhibition) at 10uM” value was 2.71%.
In the case of O=C(Nc1cccc(S(=O)(=O)N2CCOCC2)c1)C1CCCC1, the “hERG current change (%, negative = inhibition) at 10uM” value is reported as -4.03%.
CCc1ccccc1N(CC(=O)N/N=C/c1ccc(OC(=O)OC)c(OC)c1)S(C)(=O)=O was tested, and the “hERG current change (%, negative = inhibition) at 10uM” value was -5.15%.
With COc1ccc(N(C)C(=O)c2onc3c2CCCC3)cc1 the “hERG current change (%, negative = inhibition) at 10uM” value was 17.4%.
In the case of CCN(CC)CC(=O)NC1CCCc2c1cnn2-c1cc(F)cc(F)c1 (stereo not drawn), the “hERG current change (%, negative = inhibition) at 10uM” value is reported as -9.77%.
In the case of Cc1cccc(Cc2cnc(N3C(=N)SC(c4ccccc4)C3=O)s2)c1 (stereo not drawn), the “hERG current change (%, negative = inhibition) at 10uM” value is reported as 7.98%.
Cc1ccc(C(=O)C2=C(O)C(=O)N(Cc3ccco3)C2c2cccc(Br)c2)o1 (stereo not drawn) was tested, and the “hERG current change (%, negative = inhibition) at 10uM” value was 12.5%.
CC(=O)N/C(=N/c1nc(C)cc(C)n1)Nc1cccc(C)c1 was tested, and the “hERG current change (%, negative = inhibition) at 10uM” value was -21.9%.
With CCCCCC(=O)Nc1ccc(S(=O)(=O)Nc2ccc(Cl)nn2)cc1.Cl the “hERG current change (%, negative = inhibition) at 10uM” value was 12.9%.
In the case of O=C(Oc1cccc(NC(=O)c2cccs2)c1)c1cccc(S(=O)(=O)N2CCCC2)c1, the “hERG current change (%, negative = inhibition) at 10uM” value is reported as -7.91%.
For CC(=O)/C=C\c1ccc(OC(=O)c2cccnc2)cc1, the “hERG current change (%, negative = inhibition) at 10uM” value was 21.1%.
With CC1(C)CC(=O)C=C(Nc2cccc(F)c2)C1 the “hERG current change (%, negative = inhibition) at 10uM” value was 17%.
CCc1ccc(CN(C)Cc2nc(Cc3ccccc3)no2)nc1 was tested, and the “hERG current change (%, negative = inhibition) at 10uM” value was -13.5%.
Cc1c(C(=O)Nc2ccc(S(=O)(=O)N3CCOCC3)cc2)cccc1[N+](=O)[O-] was tested, and the “hERG current change (%, negative = inhibition) at 10uM” value was 1.39%.
For N/C(=N\OC(=O)c1cccc(Cl)c1)c1cccnc1, the “hERG current change (%, negative = inhibition) at 10uM” value was 1.32%.
With CC(=O)c1ccc(N2CCC(C(=O)O)CC2)cc1 the “hERG current change (%, negative = inhibition) at 10uM” value was 14.3%.
With O=C(CCN1C(=O)c2ccccc2C1=O)NCc1ccco1 the “hERG current change (%, negative = inhibition) at 10uM” value was 5.09%.
For CCN(CC)S(=O)(=O)c1ccc(NC(=O)Cn2c(=O)sc3ccccc32)cc1, the “hERG current change (%, negative = inhibition) at 10uM” value was -10.9%.
For Cc1cc(C)cc(OCC(=O)NN2C(=O)c3ccccc3C2=O)c1, the “hERG current change (%, negative = inhibition) at 10uM” value was -3.98%.
For CCCCC[C@H]1CN(Cc2ccccc2)C(=O)[C@@H]1CC(=O)NCc1ccccc1, the “hERG current change (%, negative = inhibition) at 10uM” value was -65.8%.
For CCOC(=O)C1CCN(C(=O)c2ccc(OCC(=O)Nc3cccc(C(F)(F)F)c3)c(OC)c2)CC1, the “hERG current change (%, negative = inhibition) at 10uM” value was -61.9%.
With COc1ccc(NC(=O)CN(c2ccc(F)cc2)S(=O)(=O)c2ccccc2)c(OC)c1 the “hERG current change (%, negative = inhibition) at 10uM” value was -11.3%.
In the case of Cc1nnc(SCC(=O)N(CC(C)C)c2c(N)n(CC(C)C)c(=O)[nH]c2=O)n1-c1ccccc1, the “hERG current change (%, negative = inhibition) at 10uM” value is reported as 14%.
With C#CCNC(=O)C1=C[C@H](c2coc3ccccc3c2=O)[C@@H](CCCO)[C@H](OCC)O1 the “hERG current change (%, negative = inhibition) at 10uM” value was -23.3%.
With C/C(=N\OCC(=O)Nc1ccccc1C(C)(C)C)c1ccc2c(c1)OCCO2 the “hERG current change (%, negative = inhibition) at 10uM” value was -10.9%.
CCOC(=O)C1=C(c2ccccc2)N=C2SCC(=O)N2C1c1ccc2c(c1)OCO2 (stereo not drawn) was tested, and the “hERG current change (%, negative = inhibition) at 10uM” value was -1.14%.
CC(=O)OCC1OC(c2ccccc2)C(OC(C)=O)C(OC(C)=O)C1OC(C)=O (stereo not drawn) was tested, and the “hERG current change (%, negative = inhibition) at 10uM” value was -4.94%.
In the case of COc1ccc(C(=O)/C=C/C(=O)N(Cc2ccccc2OC)C(C(=O)NC2CCCCC2)c2ccncc2)c(O)c1 (stereo not drawn), the “hERG current change (%, negative = inhibition) at 10uM” value is reported as -1.42%.
In the case of COc1ccc(S(=O)(=O)N2CCCC(C(=O)N3CCN(C)CC3)C2)cc1Cl (stereo not drawn), the “hERG current change (%, negative = inhibition) at 10uM” value is reported as -12.4%.
O=C(Nc1ccncc1)C1(c2ccccc2)CCCC1 was tested, and the “hERG current change (%, negative = inhibition) at 10uM” value was -4.27%.
With CCOc1ccc(N2C(=O)Nc3ccc(Br)cc3C2(O)C(=O)NCCN(C)C)cc1 (stereo not drawn) the “hERG current change (%, negative = inhibition) at 10uM” value was 19.4%.
With Cc1cccc(OCC(=O)N(C)CC(=O)Nc2cccc(F)c2)c1C the “hERG current change (%, negative = inhibition) at 10uM” value was 2.94%.
With Cc1ccc(NS(=O)(=O)c2ccc(N/N=C/c3ccncc3)c([N+](=O)[O-])c2)c(C)c1 the “hERG current change (%, negative = inhibition) at 10uM” value was 3.64%.
COc1ccc(-c2cc3nc[nH]c(=O)c3s2)cc1 was tested, and the “hERG current change (%, negative = inhibition) at 10uM” value was 19.4%.
In the case of CCOC(=O)N1CC[NH+](CCC(=O)Nc2cccc(Br)c2)CC1.[Cl-], the “hERG current change (%, negative = inhibition) at 10uM” value is reported as -30.2%.
For Cc1ccc(Cl)cc1NC(=O)CSc1sc2c(O)cc(=O)[nH]c2c1C#N, the “hERG current change (%, negative = inhibition) at 10uM” value was 1.68%.
COc1ccc(C(=O)NC2CCN(C(=S)Nc3cccc(C)c3C)CC2)cc1 was tested, and the “hERG current change (%, negative = inhibition) at 10uM” value was 0.204%.
O=C(NC1CCCC1)C1CCCN1C(=O)Nc1ccccc1Cl (stereo not drawn) was tested, and the “hERG current change (%, negative = inhibition) at 10uM” value was -1.42%.
In the case of Cc1ccn2cc(-c3cccc(S(=O)(=O)N4CC(C)OC(C)C4)c3)nc2c1 (stereo not drawn), the “hERG current change (%, negative = inhibition) at 10uM” value is reported as -14.3%.
For CN(c1ccccc1)S(=O)(=O)c1ccc(C(=O)NCc2ccccn2)cc1, the “hERG current change (%, negative = inhibition) at 10uM” value was 2.3%.
CCCc1cc(=O)n2[nH]c(NCc3ccc(OC)c(OC)c3)nc2n1 was tested, and the “hERG current change (%, negative = inhibition) at 10uM” value was 15%.
With Cc1ccc(SCCC(=O)Nc2nccs2)cc1 the “hERG current change (%, negative = inhibition) at 10uM” value was -2.24%.
With O=c1c(-c2ccc(Cl)cc2)coc2c(CN3CCOCC3)c(O)ccc12 the “hERG current change (%, negative = inhibition) at 10uM” value was -8.33%.
With CC1CCCN(Cc2nc3c(c(=O)n(C)c(=O)n3C)n2CCCc2ccccc2)C1 (stereo not drawn) the “hERG current change (%, negative = inhibition) at 10uM” value was -27.8%.
For CCOC(=O)NC1(NCC(C)C)Oc2ccccc2O1, the “hERG current change (%, negative = inhibition) at 10uM” value was -2.09%.
For CC(=O)c1ccc(NC(=O)C2C3CCC(C3)C2C(=O)O)cc1 (stereo not drawn), the “hERG current change (%, negative = inhibition) at 10uM” value was 17.8%.
For CCN(CC)C(=O)c1sc(NC(=O)c2ccco2)c(C#N)c1C, the “hERG current change (%, negative = inhibition) at 10uM” value was 0.887%.
With CN1CCN(c2ccccc2NC(=O)c2cc3ccccc3o2)CC1 the “hERG current change (%, negative = inhibition) at 10uM” value was -39.2%.
